From the supplement of paper PMC4967469

Assays:
Experiment in all cases: Viability of human cancer cell lines after 72 h of drug (GDSC screen)
SNX-2112 = compound: CC1(C)CC(=O)c2c(C(F)(F)F)nn(-c3ccc(C(N)=O)c(N[C@H]4CC[C@H](O)CC4)c3)c2C1 [SNX-2112]; conditions: top dose 2.56 µM
Method: (§1)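 Human cancer cell lines in 384-well plates, medium with 10% serum, drug for 72 h over a 256-fold dose range (nine 2-fold or five 4-fold steps up to the top dose). Adherent lines were fixed and stained with the nucleic acid dye Syto60, suspension lines read with resazurin; signal relative to control wells, capped at 0 and 100%. One two-parameter sigmoid per drug and line, fitted in a mixed model over all curves with the slope shared within a line.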

Vinblastine = compound: CC[C@]1(O)C[C@@H]2CN(CCc3c([nH]c4ccccc34)[C@@](C(=O)OC)(c3cc4c(cc3OC)N(C)[C@H]3[C@@](O)(C(=O)OC)[C@H](OC(C)=O)[C@]5(CC)C=CCN6CC[C@]43[C@@H]65)C2)C1 [Vinblastine]; conditions: top dose 0.1 µM; top dose inferred
Method: as §1

Afatinib = compound: CN(C)C/C=C/C(=O)Nc1cc2c(Nc3ccc(F)c(Cl)c3)ncnc2cc1O[C@H]1CCOC1 [Afatinib]
Method: as §1

PF-562271 = compound: CN(c1ncccc1CNc1nc(Nc2ccc3c(c2)CC(=O)N3)ncc1C(F)(F)F)S(C)(=O)=O [PF-562271]; conditions: top dose 2.56 µM; top dose inferred
Method: as §1

XMD13-2 = compound: O=C(NC1CC1)c1cccc(-c2ccc3c(NC(=O)C4CC4)n[nH]c3c2)c1 [XMD13-2]; conditions: top dose 10.24 µM; top dose inferred
Method: as §1

[1] = top dose 0.5 µM, screen: GDSC drug entry 1032
[2] = top dose 10 µM, screen: GDSC drug entry 1377, top dose inferred

| Cell Line | AUC (SNX-2112) | IC50 (SNX-2112) [nM] | AUC (Vinblastine) | IC50 (Vinblastine) [nM] | AUC (Afatinib; [1]) | IC50 (Afatinib; [1]) [nM] | AUC (Afatinib; [2]) | IC50 (Afatinib; [2]) [nM] | AUC (PF-562271) | IC50 (PF-562271) [nM] | AUC (XMD13-2) | IC50 (XMD13-2) [nM] |
| --- | --- | --- | --- | --- | --- | --- | --- | --- | --- | --- | --- | --- |
| SJRH30 (rhabdomyosarcoma, adherent) | 0.86 | 2260 | 0.731 | 29.2 | 0.961 | > 500 | 0.985 | > 10000 | 0.943 | > 2560 | 0.846 | 7870 |
| GT3TKB (stomach, adherent) | 0.518 | 178 | 0.246 | 1.3 | 0.981 | > 500 | 0.905 | > 10000 | 0.922 | > 2560 | 0.958 | > 10200 |
| MEG-01 (chronic myeloid leukaemia, suspension) | 0.358 | 66.5 | 0.635 | 14.4 | 0.984 | > 500 | 0.956 | > 10000 | 0.957 | > 2560 | 0.919 | > 10200 |
| CCK-81 (large intestine, adherent) | 0.468 | 131 | 0.939 | > 100 | 0.784 | 199 | 0.96 | > 10000 | 0.973 | > 2560 | 0.938 | > 10200 |
| SW948 (large intestine, adherent) | 0.677 | 631 | 0.822 | 98.7 | 0.982 | > 500 | 0.95 | > 10000 | 0.946 | > 2560 | 0.919 | > 10200 |
| BB49-HNC (head and neck, adherent) | 0.518 | 183 | 0.615 | 14.7 | 0.973 | > 500 | 0.953 | > 10000 | 0.927 | > 2560 | 0.977 | > 10200 |
| TE-9 (oesophagus, adherent) | 0.985 | > 2560 | 0.534 | 7.79 | 0.917 | > 500 | 0.972 | > 10000 | 0.89 | > 2560 | 0.986 | > 10200 |
| GDM-1 (acute myeloid leukaemia, suspension) | 0.105 | < 10 | 0.963 | > 100 | 0.987 | > 500 | 0.965 | > 10000 | 0.928 | > 2560 | 0.701 | 2290 |
| H2369 (mesothelioma, adherent) | 0.538 | 204 | 0.41 | 3.5 | 0.987 | > 500 | 0.977 | > 10000 | 0.98 | > 2560 | 0.954 | > 10200 |
| NCI-H2291 (lung adenocarcinoma, adherent) | 0.984 | > 2560 | 0.881 | > 100 | 0.951 | > 500 | 0.873 | > 10000 | 0.984 | > 2560 | 0.984 | > 10200 |

A lower IC50 marks a more sensitive line; a limit (>, <) means that the fit lies beyond the doses tested. The AUC spans the tested range (256-fold, ending at the top dose) of the same fit; it is 1 without any effect and falls as sensitivity rises. For part of these data: Any top dose called inferred comes from the curve model; the source does not state it. For part of these data: Drugs with an entry number were screened twice under separate entries, and the two screens often disagree.
